Out of some 310,000 compounds screened, about 2,200 (0.71%) showed an effect of 50% or more. The effect is printed as a negative number. Some of the results follow.
Each compound was assayed against human ether-à-go-go-related gene (hERG) potassium channel (human, UniProt Q12809) (assay: primary screen, population patch clamp on CHO cells stably expressing hERG).
Chain of human ether-à-go-go-related gene (hERG) potassium channel (Q12809 whole entry, looked up): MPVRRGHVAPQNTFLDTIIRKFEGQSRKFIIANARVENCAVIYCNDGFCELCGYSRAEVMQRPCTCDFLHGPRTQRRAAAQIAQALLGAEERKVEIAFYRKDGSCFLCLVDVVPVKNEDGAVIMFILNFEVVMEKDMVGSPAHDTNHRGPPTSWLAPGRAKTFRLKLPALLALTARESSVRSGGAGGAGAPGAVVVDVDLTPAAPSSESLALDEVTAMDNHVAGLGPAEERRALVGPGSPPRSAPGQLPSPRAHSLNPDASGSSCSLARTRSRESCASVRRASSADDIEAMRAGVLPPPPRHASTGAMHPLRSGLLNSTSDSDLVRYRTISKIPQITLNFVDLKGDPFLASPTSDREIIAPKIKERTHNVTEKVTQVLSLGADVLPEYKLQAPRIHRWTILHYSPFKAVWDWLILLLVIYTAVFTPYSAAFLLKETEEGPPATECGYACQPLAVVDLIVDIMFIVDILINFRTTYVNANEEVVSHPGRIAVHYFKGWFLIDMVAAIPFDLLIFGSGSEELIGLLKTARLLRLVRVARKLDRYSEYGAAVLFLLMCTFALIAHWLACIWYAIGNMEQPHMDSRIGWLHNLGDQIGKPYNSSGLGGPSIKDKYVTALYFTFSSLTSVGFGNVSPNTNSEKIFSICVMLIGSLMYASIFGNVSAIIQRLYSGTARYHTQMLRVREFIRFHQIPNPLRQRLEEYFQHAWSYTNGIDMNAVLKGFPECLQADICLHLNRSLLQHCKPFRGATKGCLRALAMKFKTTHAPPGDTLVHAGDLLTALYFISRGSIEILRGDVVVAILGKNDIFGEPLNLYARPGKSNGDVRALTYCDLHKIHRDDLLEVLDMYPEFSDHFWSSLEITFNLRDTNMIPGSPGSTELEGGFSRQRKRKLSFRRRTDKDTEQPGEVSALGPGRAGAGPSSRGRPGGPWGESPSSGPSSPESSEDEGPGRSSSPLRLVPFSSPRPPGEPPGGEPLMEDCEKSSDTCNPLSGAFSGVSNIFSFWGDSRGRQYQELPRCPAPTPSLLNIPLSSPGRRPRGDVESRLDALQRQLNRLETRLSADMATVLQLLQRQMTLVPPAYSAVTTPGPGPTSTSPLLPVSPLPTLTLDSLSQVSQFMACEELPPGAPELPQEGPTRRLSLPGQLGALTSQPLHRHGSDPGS

Compound | hERG current change (%, negative = inhibition) at 1uM [%]
O=C(NCC(=O)N1CCc2ccccc2C1)c1ccccc1Cl | 4.85
O=C(CNC(=O)c1ccc2c(c1)OCCO2)N=Nc1c(O)[nH]c2ccccc12 | 11.7
CCOC(=O)c1[nH]c(=O)[nH]c1COC(=O)c1cc2ccccc2o1 | -4.24
CCn1c(SCC(=O)Nc2ccccc2N2CCOCC2)nnc1-c1ccccc1O | -14.5
CCc1ccc(-c2cc3c(=O)n(CC(=O)NCCN4CCCCC4C)nc(C)n3n2)cc1 (stereo not drawn) | -4.97
O=[N+]([O-])c1cc(/C=N/N2CCN(c3ccccc3)CC2)ccc1Cl | 9.44
Cc1ccc(NC(=O)CC2SC3=NCCN3C2=O)cc1 (stereo not drawn) | -0.178
Cc1nc(C(=O)NNC(=O)c2ccc(Cl)cc2)c(C(F)(F)F)o1 | 10
CN1/C(=C/C(=S)NC(=O)C2(C)CC2(Cl)Cl)C(C)(C)c2ccccc21 (stereo not drawn) | 7.71
COc1ccc(C)cc1S(=O)(=O)Nc1cc2c3c(c1)CCC(=O)N3CCC2 | 11.1
N#Cc1nc(-c2ccc(F)cc2)oc1NCCN1CCOCC1 | 14.1
Cc1cccc(-c2nsc(SCC(=O)Nc3cc(C)on3)n2)c1 | 12.8
Cc1c(C)n(CCCN(C)C)c2ncnc(Nc3ccc(F)cc3)c12 | -3.3
CNS(=O)(=O)c1cc(-c2nnc(Nc3ccc(CC(N)=O)cc3)c3ccccc23)ccc1C | 14
COC(=O)c1cc(NC(=O)c2c(Cl)cnn2C)cc(C(=O)OC)c1 | 8.09
CC1=CC(C)(C)N2C(=O)C3(C(C#N)=C(N)OC4=C3C(=O)CC(C)(C)C4)c3c(C)c(C)cc1c32 (stereo not drawn) | 0.778
CC(C)N(CCCNC(=O)C1CCN(S(=O)(=O)N2CCOCC2)CC1)Cc1ccccc1 | 7.47
COCCCNC(=O)Cc1ccc(-n2c(C)nc3cccnc32)cc1 | 4.61
Cc1[nH]c(=O)c(C#N)cc1-c1ccccc1 | -7.61
Cc1cc(C)c[n+](-c2nc3ccccc3nc2[N-]S(=O)(=O)c2cccs2)c1 | 2.45
O=C(NCc1ccc(F)cc1)C(c1ccncc1)N(C(=O)c1csnn1)C1CC1 (stereo not drawn) | 3.06
O=C(CN1CCN(Cc2ccccc2)CC1)N1N=CCC1c1ccccc1 (stereo not drawn) | 10
CCC(C)NC(=O)C(Cc1ccccc1)NS(=O)(=O)c1ccc2c(c1)oc(=O)n2C (stereo not drawn) | 12.2
CC(CC(=O)N1CCc2ccccc21)S(=O)(=O)c1ccc2c(c1)NC(=O)CO2 (stereo not drawn) | -1.19
